This is an account of results in publication PMC8012719 (Frontiers in Pharmacology, 2021).

Values after ≈ are worked out from the molar mass of the structure shown. Structures can show the parent of a compound that is named as a salt.

The conditions of this data set: Figure 5B.
For `CC(C)N=c1cc2n(-c3ccc(Cl)cc3)c3ccccc3nc-2cc1Nc1ccc(Cl)cc1` [CFZA, Clofazimine aspirin salt], the Solubility came out at 4.00 µg/mL.

Take `CC(C)N=c1cc2n(-c3ccc(Cl)cc3)c3ccccc3nc-2cc1Nc1ccc(Cl)cc1` [CFZG, Clofazimine gallic acid salt]: the Solubility came out at 43.60 µg/mL.

Regarding `CC(C)N=c1cc2n(-c3ccc(Cl)cc3)c3ccccc3nc-2cc1Nc1ccc(Cl)cc1` [CFZH, Clofazimine hydrochloride salt], the Solubility amounted to 7.66 µg/mL.

`CC(C)N=c1cc2n(-c3ccc(Cl)cc3)c3ccccc3nc-2cc1Nc1ccc(Cl)cc1` [CFZM, Clofazimine methanesulfonate] came in with a Solubility of 18.34 µg/mL.

Molecule `CC(C)N=c1cc2n(-c3ccc(Cl)cc3)c3ccccc3nc-2cc1Nc1ccc(Cl)cc1` [CFZS, Clofazimine salicylates] registered a Solubility of 0.86 µg/mL (≈ 1.82 µM).
